The whole screen tested about 120,000 compounds, of which about 5,300 (4.4%) were called active. This list was built around the results that the source calls inconclusive (neither active nor inactive); the mix of calls is not that of the screen. Calls follow the shape of the dose curve; as a rule, active = well fitted inhibition curve with a large enough effect; inconclusive = small, poorly fitted or top-dose-only effect; inactive = no such curve, though single readings can be large or run the other way. Potencies of inconclusive entries are doubtful fits and often do not repeat.
assay: qHTS Primary assay for Inhibitors of Plasmodium falciparum Dd2 growth in vitro; also: nearly all actives have a fitted effect of over 65% in size;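 as to activity, negative = inhibition: plate controls were DMSO vehicle for no effect and reference drug for full effect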; conditions: P. falciparum Dd2 growth, SYBR Green, 72 h; activity, negative = inhibition: at 28.9 µM (top of the series) unless noted; series mostly up to 28.9 µM
Procedure, shortened: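 Readout: SYBR Green fluorescence, 485 nm excitation, 535 nm emission, after ~16 h lysis at 37C. Before that, Dd2-infected red cells (2.5% hematocrit) grew 72 h with compound, 29 uM top final concentration.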
Potency is read from the fitted curve at half-maximal effect; tags tell the direction and shape of the fitted curve.

Compound | Potency | outcome | activity, negative = inhibition
O=C(c1ccccc1)N1CCc2sc(C(=O)N3CCN(c4ccccn4)CC3)cc2C1 | inconclusive: 10 µM [inhibitor, partial curve, poor fit] | – | –
O=C(Nc1ccccc1)c1cnc2n1CCN(Cc1ccc3c(c1)CCO3)CC2 | inconclusive: 12.6 µM [inhibitor, single point] | – | –
COc1ccc(-c2cc(N3CCCN(C(=O)c4ccc5nc[nH]c5c4)CC3)n[nH]2)cc1 | – | inactive | –
O=C(Nc1ccc(Cl)nc1)c1ccn2cncc2c1 | inconclusive: 2.24 µM [inhibitor, full curve, poor fit] | – | –
CCOc1ccc(-c2cc(CCCC(=O)NCCc3cc(OC)c(OC)c(OC)c3)no2)cc1 | inconclusive: 17.8 µM [inhibitor, single point] | – | –
Cc1ccc(NC(=O)Cn2cc(C(=O)C3CCCCC3)c3ccccc32)cc1 | inconclusive: 10 µM [inhibitor, single point] | – | –
CCC(NS(=O)(=O)c1ccc(C(=O)NC2CC2)cc1)c1cnn(C)c1 (stereo unspecified) | – | – | inactive: 2.88%
CC(C)c1cccc(NC(=O)CN2C(=O)NC3(CCOCC3)C2=O)c1 | – | – | inactive: -9.05%
Cc1ccc(NC(=O)c2nc(S(C)(=O)=O)ncc2N(Cc2ccco2)Cc2cccs2)cc1C | inconclusive: 11.2 µM [inhibitor, single point] | – | –
COc1ccccc1NC(=O)c1cc2c(C)nn(-c3ccccc3)c2s1 | – | – | inactive: -26.8%
COc1ccc(CC(=O)Nc2ccc([C@@H](O)[C@H]3COCC(=O)N3CC3CCCCC3)cc2)cc1 | inconclusive: 17.8 µM [inhibitor, single point] | – | –
COC(=O)c1ccc(CSc2nc3c([nH]c4ccccc43)c(=O)n2-c2cccc(Cl)c2)o1 | inconclusive: 17.8 µM [inhibitor, single point] | – | –
CCN1c2cc(C(=O)NCc3cccc(F)c3)ccc2C(=O)N2CCCCCC21 (stereo unspecified) | active: 3.55 µM | – | –
O=C(NCCn1ccn2nc(-c3ccc(F)cc3)cc2c1=O)c1ccc(F)cc1 | inconclusive: 3.55 µM [inhibitor, partial curve, poor fit] | – | –
CNC(=O)c1cc(-c2ccccc2)cc2c1OCCN2Cc1cccnc1 | inconclusive: 10 µM [inhibitor, single point] | – | –
O=C(C1CCCC1)N1CCCC(Cc2nc(C3CCOCC3)no2)C1 (stereo unspecified) | – | – | inactive: 9.71%
COc1nc2ccccc2nc1CCC(=O)N[C@H]1COC[C@H]1Cc1cc(C)no1 | inconclusive: 0.0631 µM [inhibitor, full curve, poor fit] | – | –
O=C(Nc1ccccc1)[C@H]1CN2CCC1C[C@@H]2Cn1cc(-c2ccccc2)nn1 (stereo partly specified) | inconclusive: 22.4 µM [inhibitor, single point] | – | –
Cc1ccc(-c2csc(=Nc3ccccc3)n2Cc2ccc3c(c2)OCO3)cc1 | inconclusive: 12.6 µM [inhibitor, single point] | – | –
CCOc1ccc(C(=O)NC2CCN(c3cnn(CCOC)c(=O)c3)CC2)cc1 | inconclusive: 12.6 µM [inhibitor, single point] | – | –
COc1ccc(C(=O)N2CCC3(CC2)NC(=O)N(c2cccc(F)c2)N3)cc1 | active: 11.2 µM | – | –
N#CC1(c2ccccc2)CCN(C(=O)[C@H]2CCC[C@@H](O)C2)CC1 | – | – | inactive: 0.0583%

Compound | Potency | outcome | activity, negative = inhibition
Cc1cc(C(=O)NCC(F)(F)F)c2c(C3CCNCC3)noc2n1 | – | – | inconclusive: -31.6% [inhibitor]
CCn1nccc1C(=O)N1CCC(N2C(=O)[C@H](OCCOC)[C@@H]2c2ccncc2)CC1 | – | – | inactive: 6.53%
COc1cccc(CC2(CO)CCCN(c3nnnn3-c3ccccc3)C2)c1 (stereo unspecified) | inconclusive: 3.98 µM [inhibitor, partial curve, poor fit] | – | –
Cc1nc(C)c(C(=O)N2CCC(N3C(=O)C4(CCCCC4)C3c3ccccc3)CC2)s1 (stereo unspecified) | active: 12.6 µM | – | –
COc1ccc(C2(C(=O)N3CCN(C(=O)N4CC5CC(C4)[C@H]4CCCC(=O)N4C5)CC3)CC2)cc1 (stereo partly specified) | – | – | inactive: -8.23%
CC(C)[C@@H]1CN(C(=O)c2cc(N3CCCCC3)ccc2Cl)C[C@H]1N(C)C | inconclusive: 14.1 µM [inhibitor, partial curve, poor fit] | – | –
C#CCNC(=O)C[C@@H]1c2nc(NC(=O)N3CCOCC3)sc2C[C@@H]2[C@](C)(CO)[C@H](O)CC[C@]21C | inconclusive: 10 µM [inhibitor, partial curve, poor fit] | – | –
COCCc1nncn1C1CCN(S(=O)(=O)c2ccc(OC)cc2)CC1 | – | – | inactive: 11.1%
CS(=O)(=O)N1CCCC(C(=O)NC2CCCC2)CCNC(=O)CC1 (stereo unspecified) | – | – | inactive: 23.1%
Cc1cc(C)c(NC(=O)Cn2c(=O)n(-c3ccc(F)cc3)c(=O)c3c2cc(C)n3C)c(C)c1 | – | – | inactive: -6.12%
CC(C)n1cc(CN2CCCN(S(=O)(=O)c3ccccc3)CCC(=O)NCC2)c2ccccc21 | inconclusive: 5.62 µM [inhibitor, partial curve] | – | –
COc1ccc(-c2nc3cc(C)ccc3cc2CN2CCN(C(C)=O)CC2)cc1 | inconclusive: 17.8 µM [inhibitor, single point] | – | –
N#CCn1nc2n(c1=O)CCN(S(=O)(=O)c1ccc3c(c1)OCCO3)CC2 | – | – | inactive: -8.88%
COc1ccccc1C(=O)Nc1ccc2nc(SCC(=O)N3CCCC3)sc2c1 | inconclusive: 4.47 µM [inhibitor, partial curve, poor fit] | – | –
CN1C(=O)C(Cc2nc(-c3ccc4nc[nH]c4c3)no2)N(C)C1=O (stereo unspecified) | – | – | inactive: -12.6%
COc1ccccc1N1CCCc2ncc(C(=O)Nc3cccc(F)c3)cc21 | – | – | inactive: -29.9% [at 44.1 µM]
COc1cccc(C(=O)N2[C@@H]3CC[C@H]2CC(NC(=O)c2ccncc2)C3)c1 (stereo partly specified) | – | – | inactive: -4.71%
CN1CCC(N2C[C@@H]3C[C@H]2C(=O)N(CC2CC2)c2ccccc2O3)CC1 | inconclusive: 15.8 µM [inhibitor, partial curve, poor fit] | – | –
CN1CCC2(C1)CN(CC1CC1)c1ccc(C(=O)NCC3CC3)cc12 (stereo unspecified) | inconclusive: 31.6 µM [inhibitor, single point] | – | –
Cc1ccc(NC(=O)c2cc(S(=O)(=O)N3CCC(C)CC3)cn2C)cc1Cl | inconclusive: 3.16 µM [inhibitor, full curve, poor fit] | – | –
CC(C)CNC(=O)N1CCCC(c2noc(COc3ccccc3)n2)C1 (stereo unspecified) | inconclusive: 8.91 µM [inhibitor, partial curve, poor fit] | – | –
COC[C@@H]1[C@H](NC(=O)C2CCN(C(=O)c3ccncc3)CC2)[C@@H]2CCO[C@H]12 | – | – | inactive: -6.77%

Compound | Potency | outcome | activity, negative = inhibition
Cc1ccc(C)c(-c2ccc(C(=O)NCCCn3ccnc3C(C)C)cn2)c1 | inconclusive: 12.6 µM [inhibitor, single point] | – | –
O=C(c1cccs1)N1CCCN(c2cc(-c3ccc(F)cc3)[nH]n2)CC1 | inconclusive: 17.8 µM [inhibitor, single point] | – | –
O=C1CCC2(CNC(=O)c3ccoc3)CCC=C2N1 (stereo unspecified) | – | – | inactive: 23.4%
CC(=O)NC1(C)CCN(Cc2cccc(-c3cccc(Cl)c3)c2)C1 (stereo unspecified) | – | – | inactive: -13.6% [at 44.1 µM]
C[C@]1(CO)[C@H]2Cc3sc(NC(=O)c4ccnc(Cl)c4)nc3[C@@H](CC(=O)NCc3ccco3)[C@]2(C)CC[C@H]1O | inconclusive: 1.41 µM [inhibitor, single point] | – | –
O=C(c1ccc(F)cc1Cl)N1CCC2(CC1)NC(=O)N(c1ccccc1Cl)N2 | inconclusive: 17.8 µM [inhibitor, single point] | – | –
CCNC(=O)C1C(c2cccc(NC(=O)Cc3ccccc3)c2)OC(=O)N1Cc1ccc(C)cc1 (stereo unspecified) | inconclusive: 1 µM [inhibitor, partial curve, poor fit] | – | –
Cc1ccc(S(=O)(=O)c2nnn3c2nc(NCc2ccccc2)c2sccc23)cc1 | – | inactive | –
c1ccc(-c2cn([C@H]3CO[C@H]4[C@@H]3OC[C@@H]4NCC3CCCCC3)nn2)nc1 | inconclusive: 12.6 µM [inhibitor, single point] | – | –
CN(Cc1ccccc1)C(=O)C[C@@H]1O[C@H](CNC(=O)c2ccno2)[C@@H](O)[C@H]1O | – | – | inactive: -13.1% [at 44.1 µM]
O=S(=O)(c1cc(Br)c(Br)s1)N1CCN(c2ccccc2)CC1 | – | – | inconclusive: -39.6% [inhibitor] [at 5.79 µM]
CCOc1ccc(NC(=O)CCc2nc3cccnc3n2Cc2ccc(OC)cc2)cc1 | inconclusive: 12.6 µM [inhibitor, single point] | – | –
Cc1ccccc1CN1C(=O)c2ccccc2Sc2ccc(C(=O)O)cc21 | – | – | inactive: 13.2%
CCc1ccc(CN2CCC(CNC(=O)c3ccc(C)nc3)C2)nc1 (stereo unspecified) | inconclusive: 14.1 µM [inhibitor, partial curve, poor fit] | – | –
Cc1cccc(NC(=O)C2CCN(S(=O)(=O)c3ccc4[nH]c5c(c4c3)CCCCC5)CC2)c1 | inconclusive: 17.8 µM [inhibitor, single point] | – | –
Cc1cc(C)cc(NC(=O)Cn2cc(C(=O)c3ccncc3)c(=O)c3cc(C)c(C)cc32)c1 | – | – | inactive: -24%
Cc1cc(C(=O)N2CCCN(S(=O)(=O)c3ccccc3)CCC(=O)NCC2)n(C)n1 | – | – | inactive: -5.14%
O=C(Cn1ccn2nc3c(c2c1=O)CCCCC3)NCc1ccccc1Cl | inconclusive: 0.199 µM [inhibitor, full curve] | – | –
CCC(=O)N1CCc2c(C(=O)NCc3ccc(OC(C)C)cc3)cccc21 | inconclusive: 17.8 µM [inhibitor, single point] | – | –
COc1ccccc1NC(=O)C1=C(C)Nc2nc(SCc3ccccc3F)nn2C1c1ccncc1 (stereo unspecified) | – | – | inactive: -17.3%
COc1cccc(NC(=O)CCSc2nc(-c3ccco3)cc(C(F)(F)F)n2)c1 | inconclusive: 2 µM [inhibitor, full curve, poor fit] | – | –
COc1ccc2c(c1)CCc1c(C(=O)Nc3cnn(Cc4ccc(Cl)cc4Cl)c3)noc1-2 | active: 7.94 µM | – | –

From PubChem BioAssay AID1347417 (National Center for Advancing Translational Sciences (NCATS), 2020)
